“And” between values parts separate entries of the source, which are not always exact repeats. Equal values may be shown once. In all, about 5,300 compounds were measured (“PER2::LUC luminescence relative to vehicle control”: median about 0.96, highest 2% from about 1.3 on). The list shows a part of the results.

Consider 20 compounds from the supplement of paper PMC9334596.

The subject of the assay is mPer2Luc MEF. Put plainly: PER2::LUC luminescence relative to vehicle control (fold of vehicle); higher = higher PER2::LUC reporter signal. The settings on record: 10 µM. The method, boiled down: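 Compounds from commercial libraries were added at 10 μM to 384-well plates seeded 48 h earlier with ~3000 mPer2Luc mouse embryonic fibroblasts per well. The cells were kept in DMEM with 10% FBS at 37 °C and 5% CO2. Luminescence was read with ONE-Glo 24 h and 30 h after treatment, then an alamarBlue viability assay was run. Values are PER2::LUC luminescence relative to vehicle control, as fold change.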

For `NC[C@H](CC(=O)O)c1ccc(Cl)cc1`, the “PER2::LUC luminescence” value stood at 1.06 (time after treatment 24 h) and 0.999 (time after treatment 30 h).
In the same order, the values of `CCN1C[C@]2(C)CC[C@H](O)[C@]34C1[C@@H](C[C@H]23)[C@@]1(O)C[C@H](OC)[C@H]2C[C@@H]4[C@@H]1[C@H]2O` are 0.852 and 1.11.
The like results for `CC(N)Cc1ccc(O)cc1` (stereo not given) were, in that order, 0.959 and 0.914.
The like results for `CN1CCN(C(=O)O[C@H]2c3nccnc3C(=O)N2c2ccc(Cl)cn2)CC1` were, in that order, 1.03 and 0.937.
As for `Clc1cncc(N2CCNCC2)n1`, the “PER2::LUC luminescence” value is, setting by setting: (time after treatment 24 h) 0.836; (time after treatment 30 h) 0.917.
Consider `O=C1Nc2ccc(Cl)cc2C(c2ccccc2Cl)=NC1O` (stereo not given), for which the “PER2::LUC luminescence” value is 0.955 (time after treatment 24 h) and 0.928 (time after treatment 30 h).
The like results for `CC(=O)O[C@H]1[C@H]2[C@@H](OC(=O)Cc3ccccc3)[C@@H](C)C[C@]2(OC(C)=O)C(=O)/C(C)=C/[C@@H]2[C@H](CC[C@@]13CO3)C2(C)C` were, in that order, 0.946 and 0.917.
The like results for `CC1=C2C(=O)[C@H]3[C@@H](CC=C4C[C@@H](O)CC[C@@]43C)[C@@H]2CC[C@]12O[C@@H]1C[C@H](C)CN[C@H]1[C@H]2C` were, in that order, 0.994 and 0.882.
For the compound `O=C1CC[C@@]2(O)[C@H]3Cc4ccc(O)c5c4[C@@]2(CCN3CC2CC2)[C@H]1O5`, the “PER2::LUC luminescence” value is 0.976 and 0.48 (time after treatment 24 h); 1.07 and 0.919 (time after treatment 30 h).
Consider `c1ccc2sc(C3(N4CCCC4)CCCCC3)cc2c1`, for which the “PER2::LUC luminescence” value runs as follows: (time after treatment 24 h) 0.894; (time after treatment 30 h) 0.807.
The like results for `NC(=O)c1cc([N+](=O)[O-])cc([N+](=O)[O-])c1` were, in that order, 1.01 and 1.18.
For the compound `COc1ccc2c(c1O)-c1c(OC)c(OC)cc3c1[C@H](C2)N(C)CC3`, the “PER2::LUC luminescence” value (time after treatment 24 h) was 0.916 and 1.01; the “PER2::LUC luminescence” value (time after treatment 30 h) is 0.928 and 1.24.
Consider `Cn1c(CCCC(=O)O)nc2cc(N(CCCl)CCCl)ccc21`, for which the “PER2::LUC luminescence” value (time after treatment 24 h) was determined as 1.19 and the “PER2::LUC luminescence” value (time after treatment 30 h) was 1.11.
In the same order, the values of `CN1C(=O)[C@]2(Cc3cn([C@]45C[C@@]67SS[C@@](CO)(C(=O)N6[C@H]4Nc4ccccc45)N(C)C7=O)c4ccccc34)SS[C@@]1(CO)C(=O)N2C` are 1.04 and 0.992.
In the same order, the values of `CN[C@@H]1[C@@H](O)[C@@H](O[C@@H]2[C@@H](O)[C@H](O[C@H]3O[C@H](CN)CC[C@H]3N)[C@@H](N)C[C@H]2N)OC[C@]1(C)O.CN[C@@H]1[C@@H](O)[C@@H](O[C@@H]2[C@@H](O)[C@H](O[C@H]3O[C@H]([C@@H](C)N)CC[C@H]3N)[C@@H](N)C[C@H]2N)OC[C@]1(C)O.CN[C@@H]1[C@@H](O)[C@@H](O[C@@H]2[C@@H](O)[C@H](O[C@H]3O[C@H]([C@@H](C)NC)CC[C@H]3N)[C@@H](N)C[C@H]2N)OC[C@]1(C)O` are 0.78 and 1.04.
The like results for `C[C@@H]1Cc2c(Cl)cc(C(=O)N[C@@H](Cc3ccccc3)C(=O)O)c(O)c2C(=O)O1` were, in that order, 1.1 and 1.05.
For `CN1C[C@H](C(=O)N[C@]2(C)O[C@@]3(O)[C@@H]4CCCN4C(=O)[C@H](Cc4ccccc4)N3C2=O)C=C2c3cccc4[nH]cc(c34)C[C@H]21`, the “PER2::LUC luminescence” value reads like this: (time after treatment 24 h) 0.714; (time after treatment 30 h) 0.724.
The like results for `C[C@@H](NC(=O)[C@@H](N)Cc1ccc(O)cc1)C(=O)NCC(=O)N(C)[C@@H](Cc1ccccc1)C(=O)N[C@H](CO)CC[S+](C)[O-]` (stereo not given in full) were, in that order, 1.08 and 0.941.
`CNc1ccccc1C(=O)O`: the “PER2::LUC luminescence” value came out at 1.03 (time after treatment 24 h) and 0.938 (time after treatment 30 h).
In the case of `COc1cc(C(=O)OC2CC3CCC(C2)N3C)ccc1O` (stereo not given), the “PER2::LUC luminescence” value (time after treatment 24 h) was determined as 0.926 and the “PER2::LUC luminescence” value (time after treatment 30 h) worked out at 0.902.
